This is an account of results in the supplement of paper PMC11417369.

The other results are listed elsewhere or left out.

This assay relates to PfSIP2 AP2 domain 1 (GST-tagged). The assay can be described thus: gcPBM binding intensity (ln(normalized median fluorescence intensity)); higher = stronger DNA binding. The method in brief:
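Plasmodium falciparum DNA-binding domains carrying a GST tag were expressed in E. coli and applied for 1 h, at about 25 μg on average, to an Agilent 4 × 180k array. The array held primer-extended double-stranded 36-bp intergenic genomic probes together with negative controls, and binding took place in 1× PBS with 1% milk, 0.2 mg/ml BSA, 0.5% salmon testes DNA and 0.03% Triton X-100. An Alexa488 anti-GST antibody detected bound protein, and the array was scanned at 488 nm. Binding intensity is taken as the highest Masliner-normalised natural-log median intensity across replicate spots of either probe orientation.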
For the sequence “TATTGTATAAAAATAACATGCAATCCTTATACTGCT [TGCATGCA_site345]”, the “gcPBM binding intensity (ln)” value came out at 6.75.

Consider “TGTACAGTAAATACAACACACATTTGTATAAATATA [CACACA_site4705]”, for which the “gcPBM binding intensity (ln)” value worked out at 6.96. For the sequence “AATGACATTCTTACACGTACAAAATAAAAAATAAAA [XGTACX_site6932]”, the “gcPBM binding intensity (ln)” value was 7.19. With “TATATATTATATTCATGTACGTAAAAATTTTGAATA [XGTACX_site6734]” the figure was 7.1. Turning to “ATTTATTTTATAATATATAAATGATATATCTTATTA [CACACA_negctrl_site66]”, the “gcPBM binding intensity (ln)” value is 6.56. With “CCATATGATATATATTGTACATTATATATTATTTCT [XGTACX_site1697]” the figure was 6.92.

In the case of “TATGTTGTTTATTTAGTGCATATTTAAATATTATAA [GTGCAC_site9601]”, the “gcPBM binding intensity (ln)” value came out at 9.09. With “TTTTCTTTCTTGTTTCGTATATTATAAAAAAAAAAG [CACACA_negctrl_site854]” the figure was 7.25. With “GTATTTTGCATAAATGCATGTAAATATATACCTACC [TGCATGCA_site957]” the figure was 7.28; with “TATTTGGGTATTTTTACACACATTAAAATATATATA [CACACA_site5800]”, 7.05; with CAGTTGTTAATTTGTGTGCACCAAATATTATACATA, 11.2.

With “ACATATGAATATAATACACACTTGTATTCTTAATAT [CACACA_site5085]”, the “gcPBM binding intensity (ln)” value worked out at 6.94. With “ATAATTCCATAAAATAGACACACGAATGTATAATAT [CACACA_site477]” the figure was 7; with “TGTAGATAAAATAAACGTACGTATTGATTTTTTTCA [XGTACX_site1610]”, 6.72. With “TATTTGTAAAGACATGCATGGTACTTTTAAAACATA [TGCATGCA_site7]” the figure was 7.16. Consider “TTAATATTTGTTCTGATCCTTTTATTCAACTTTTTT [CACACA_negctrl_site536]”, for which the “gcPBM binding intensity (ln)” value worked out at 6.77. Take “TGGTAATACCCATACACACACACATACACATATATA [CACACA_site8877]”: the “gcPBM binding intensity (ln)” value worked out at 7.12. The value for “TCTAATTTAAAATACACACACATATCTATAATATAT [CACACA_site7029]” was 6.85. The value for “GTATAAAAATTTAGGAGTACAATATATTTATAATAT [XGTACX_site2127]” was 7.2; that for “TTTTTGTATTCTCCGGACTACATTATGTTGTAAATG [CACACA_negctrl_site691]” was 6.9. For “GTAATAAAAAATTAATGTACTTTATATAATATATTA [XGTACX_site5935]”, the “gcPBM binding intensity (ln)” value is 6.95.

Consider “ACAGAATACATATACACACATACAAAAAAGTGCATA [CACACA_site987]”, for which the “gcPBM binding intensity (ln)” value worked out at 7.81. The value for “TCATACTGTATATTTTGTACTTATATATATATTATA [XGTACX_site6136]” was 6.99. With “CATTATGTTGTAAATGCACACATACATATACACAGT [CACACA_site8990]” the figure was 7.36. With “TTATTTTGTTTTAAAAGTACACACTTTTAATTAGAT [XGTACX_site2271]” the figure was 7.07.

As for “ATAATAAGCAAACACACACACACAAAAAAAAAAAAA [CACACA_site720]”, the “gcPBM binding intensity (ln)” value was 7.14. Consider “TATATAAACACGTACACACACATATAGGTATTTATA [CACACA_site7615]”, for which the “gcPBM binding intensity (ln)” value was 7.45. With “TACAAAAGCGATACGGCACACATTTCCTGTTTAAAT [CACACA_site2746]” the figure was 6.79; with “AAAAGATTGCTCCGCATGCACCTCCAAAAGTTCCTT [GTGCAC_site9993]”, 9.92. The value for “TTTGCTTCCAAAAGTCGTACAAAAAATATTAAATAT [XGTACX_site4171]” was 7.04; that for “TAAAAGGAAAAAAAAGCACACACAATATTACTTGAA [CACACA_site8831]” was 6.89. The value for “TATCAAAATTAGTATACACACAAAATTATTCAAATA [CACACA_site2232]” was 6.83; that for “TATACATATAAATTGTGTACACATATATATATATTT [XGTACX_site7875]” was 7.13; that for “AATATATAAATTAATACATGCACATATAGAAAGGGA [TGCATGCA_site472]” was 8.64. “CTTTTTACTTAATACACACACACACTAGAAAAAAAA [CACACA_site4680]”: the “gcPBM binding intensity (ln)” value stood at 7.5. With “CTTTTCTTTTTTTTTTGTACATAAAATTATTCCTTA [XGTACX_site3924]” the figure was 7.06; with “AATATAGTCACACATACACACATATAGATTTATATA [CACACA_site7223]”, 7.07. The value for “TTTTGTTGCTCTTTTTTTTTTTTTTTTAACTGTATG [CACACA_negctrl_site1072]” was 6.8. The value for “AACCAATATGTGTATACACACATAAATATAAATATA [CACACA_site7729]” was 7.24; that for “AAAAAAAAAAAAAGGTGTACATAAGTAAATTCATAT [XGTACX_site4206]” was 7.11. Regarding “AATACTATTATTATTGCACACTTATTATCCCTCGGA [CACACA_site4262]”, the “gcPBM binding intensity (ln)” value worked out at 7.1.

Take “TATAAAAATATTTCTACACACATTAATATATATATA [CACACA_site1150]”: the “gcPBM binding intensity (ln)” value was found to be 8.62. The value for “AATATATAGAGAGATATGCACACTGTATGAATGCAC [CACACA_site2677]” was 10.3; that for “TATATTAATAATAAGTGTACATATATATATATTTTT [XGTACX_site288]” was 7.3.
